# The full ranking holds about 33,000 sequences; the median of “E-score (-0.5 to 0.5)” is about -0.011, and the highest 2% start at about 0.28. Some of the results follow.
# Target: T1, Gcr1 (UniProt P07261)
# T1 sequence: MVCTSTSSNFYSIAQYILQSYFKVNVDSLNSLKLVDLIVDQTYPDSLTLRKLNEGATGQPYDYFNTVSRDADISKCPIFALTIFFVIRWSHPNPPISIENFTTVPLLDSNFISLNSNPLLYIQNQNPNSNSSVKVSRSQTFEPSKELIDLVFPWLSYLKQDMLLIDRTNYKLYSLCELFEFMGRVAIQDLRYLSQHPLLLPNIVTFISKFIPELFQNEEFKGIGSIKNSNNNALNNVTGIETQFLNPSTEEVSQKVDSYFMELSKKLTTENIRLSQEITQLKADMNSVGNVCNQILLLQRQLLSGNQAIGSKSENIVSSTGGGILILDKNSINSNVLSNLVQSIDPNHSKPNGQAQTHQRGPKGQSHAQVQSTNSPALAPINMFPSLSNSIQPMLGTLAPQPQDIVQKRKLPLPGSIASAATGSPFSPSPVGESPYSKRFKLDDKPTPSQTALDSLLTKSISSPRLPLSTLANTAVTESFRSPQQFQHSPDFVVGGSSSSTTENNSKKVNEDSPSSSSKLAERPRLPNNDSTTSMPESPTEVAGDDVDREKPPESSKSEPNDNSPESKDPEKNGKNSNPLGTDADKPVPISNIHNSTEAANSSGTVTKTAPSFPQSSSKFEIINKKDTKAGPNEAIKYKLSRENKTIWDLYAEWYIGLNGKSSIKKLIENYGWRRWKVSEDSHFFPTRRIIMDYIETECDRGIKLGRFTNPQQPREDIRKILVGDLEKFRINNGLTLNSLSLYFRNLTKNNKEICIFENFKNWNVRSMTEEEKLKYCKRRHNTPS
# Assay: PBM E-score (8-mer binding enrichment) (E-score (-0.5 to 0.5)); higher = stronger / more preferred TF binding; most listed sequences are background and not binding sites
# Conditions: protein concentration: 100 nM; construct: GST-full length
# Summary of the method: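 GST-tagged yeast TFs (full-length or DNA-binding domain) were made by PURExpress in vitro transcription/translation and applied at about 100-200 nM to universal all-10-mer Agilent arrays. The arrays were made double-stranded by primer extension, on fresh or once-stripped slides. Bound protein was detected with fluorescent anti-GST, and scans were normalised with masliner. Each ungapped eight-base word, pooled with its reverse complement, received an E-score (modified Wilcoxon-Mann-Whitney statistic) from the Universal PBM Analysis Suite.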
row,Sequence,PBM E-score
1,CATAAGTA,0.188
2,CGGACGCA,0.0459
3,ATATTACG,0.091
4,CCACCCCA,0.116
5,ATTTATAG,-0.0198
6,AATGATCG,-0.182
7,AGCTTGTC,-0.128
8,ACCACGAG,-0.0324
9,CGCCTCGC,-0.00832
10,CGCCCGTA,0.125
11,CATTAGAA,0.0456
12,ACTTACTC,-0.243
13,ACTATGAT,-0.0815
14,ACATTAGC,0.148
15,GCACGGCC,-0.128
16,ATGGGACA,0.0104
17,GAGGCCAA,-0.00152
18,AATTGAGA,0.147
19,CCGATTAC,-0.0535
20,CAGGACAG,0.0268
21,ATCAAATC,0.0142
22,ACCAGTAT,0.278
23,GGGCACCC,0.321
24,AAGAAACA,0.0455
25,TACCACTA,0.365

row,Sequence,PBM E-score
1,AAATTTCA,0.0803
2,ACTGGGTA,0.0422
3,ATCTTATG,0.093
4,ACCTGGCA,-0.0308
5,CGTTTCAA,-0.0791
6,ATTGGATA,0.00978
7,TGCTAACA,0.0488
8,AATATCGT,0.26
9,GTAGACCA,-0.167
10,AGAATACA,-0.0397
11,GATGGCGA,-0.175
12,CGGGAGGA,-0.155
13,AGGGCAGG,-0.173
14,ATCGGCCG,-0.15
15,ACAAAGGA,0.00803
16,CTCCAATA,0.075
17,CAATTAGG,0.223
18,AGACGTCG,0.117
19,GACGGTAA,0.0114
20,CACCTATA,0.0595
21,TACACTGA,-0.0218
22,GCCCTGAC,0.0741
23,ACATTCGT,-0.0774
24,AGTATCGG,-0.0989
25,TCACACGA,-0.0736

row,Sequence,PBM E-score
1,ATGATTAA,0.0525
2,ACAGACTG,-0.139
3,GAAGCGAA,0.133
4,AACGGGGT,-0.0406
5,CCCTCAAA,-0.236
6,GTGAGAAC,-0.0123
7,CACTGAGC,-0.00627
8,AGGGATCA,-0.054
9,ATTAATTC,0.0449
10,AGCAACCC,0.00142
11,GTAAAGAC,-0.129
12,GTCATGGA,-0.0358
13,TAGCCGCA,-0.115
14,AAAGGACA,-0.132
15,AGAAAACA,-0.00733
16,CGGAAACC,0.0955
17,ACAAATGC,-0.107
18,CATTGTGG,0.172
19,ATTCATTA,0.0907
20,TCCCAGCA,0.0476
21,CATCGTTA,-0.109
22,GACCTCAC,-0.247
23,AGGCCTAC,-0.13
24,CGGTTAAC,-0.0371
25,ATATCCTG,-0.0238

row,Sequence,PBM E-score
1,AACAGATT,0.0831
2,CGGGTTTC,0.0736
3,AAGCCGTG,0.0549
4,CGGTATAA,0.0683
5,CGTTAAGC,-0.0745
6,GGCTTACC,-0.18
7,AAAACACT,0.0406
8,CTTCACTC,-0.132
9,GCTATCTA,-0.0201
10,ACCTCTTC,0.00428
11,CTGTTGCA,-0.0353
12,AGACTGGC,0.00234
13,AAAACGCC,-0.157
14,GAGGGCCA,-0.137
15,AGGCATCG,0.0175
16,AGGGACGC,0.139
17,ACCTGCGC,0.0153
18,GATTCTCA,0.0363
19,AGAACGTC,-0.123
20,CCAAGTAC,0.0611
21,AACGAGAT,0.031
22,AGGCCCTC,-0.265
23,ACGTTGGA,-0.087
24,AGTCCCGC,-0.0582
25,GTACTGGA,0.235

row,Sequence,PBM E-score
1,CAGCCTTC,-0.085
2,AAGCTGTC,-0.142
3,GAGTCTGC,0.00367
4,GAACGTAA,-0.06
5,CCCTAACA,0.101
6,CCTCTTTA,0.119
7,GTAGTGTA,-0.0351
8,ATGGACAT,0.022
9,AACCCATC,-0.119
10,CCCGTAAG,0.113
11,ACCATTTC,0.0711
12,CGTACAGC,-0.12
13,CAGATCGG,0.129
14,GCGAGCCA,-0.204
15,ACTCTGCA,-0.0157
16,GCTAAAGC,-0.217
17,CCTAGATC,-0.0364
18,ATTATTGG,0.0188
19,GGCAAGAC,-0.199
20,CGCCACCC,-0.0995
21,TAAGTGAA,-0.0606
22,GACCCAAA,0.169
23,ATCACCTG,-0.0857
24,CCAATTGA,0.0612
25,CAAAATAC,0.0518

row,Sequence,PBM E-score
1,AGCGATAT,0.0305
2,GCCCTCCC,0.0504
3,ATGCACTA,-0.109
4,GTTATTCA,0.175
5,CAGTGTTA,-0.0217
6,ATAATGTA,0.0597
7,GCGTGGCA,-0.183
8,AACAGGCG,-0.0919
9,CCGCTTGA,-0.137
10,CAGTCATA,-0.11
11,TAGGGCAA,-0.12
12,ACCCGACC,-0.0716
13,GATCGACC,-0.177
14,CATGGACA,-0.175
15,CAGCTATG,-0.265
16,AAGGGCAA,-0.142
17,CATTCAGC,0.0123
18,ATACCCCG,-0.107
19,GATCAGAA,-0.0468
20,AGTGACAG,-0.0775
21,CTACAAAG,-0.0715
22,CTACCCAA,0.0568
23,GTCGCGCA,0.0621
24,CATGTCCA,-0.0388
25,AGTTTCTC,0.00745

row,Sequence,PBM E-score
1,AAATGTAA,0.0136
2,GGAAACCA,0.136
3,CAATCAAC,-0.0776
4,ACTTGTCG,0.0982
5,GGCCTGAA,-0.145
6,ACTCTACG,-0.153
7,ACAGCGTA,-0.121
8,GAAGGACA,-0.0429
9,AATCTGGC,0.0826
10,GATGCTCA,0.115
11,ATTCTGCG,0.0393
12,AAGTCGCG,0.00184
13,AACGAGCG,-0.0771
14,ACAGTAAT,-0.139
15,GCTCGACC,0.00687
16,CGGACTTC,0.116
17,TAAAATAA,0.163
18,CTACCGGA,0.0625
19,TCGGTTCA,-0.0382
20,CACCTATC,0.0711
21,CACCTGAA,0.143
22,CTGCTTTA,0.0199

# — the supplement of paper PMC3334620
